Reference: US20030138423A1, “Method of treating inflammation with HIV-1 protease inhibitors and their derivatives” (CEDARS-SINAI MEDICAL CENTER, priority 2001, published 2003)

Tested on: NF-κB
Experiment: LPS-induced NF-κB luciferase activation in HMEC
Settings: pretreatment before LPS, nelfinavir 1, 3, 6 μg/ml

Cc1c(O)cccc1C(=O)N[C@@H](CSc1ccccc1)[C@H](O)CN1C[C@H]2CCCC[C@H]2C[C@H]1C(=O)NC(C)(C)C [nelfinavir]
LPS-induced NF-κB activation (percent NF-κB luciferase activity): inhibited LPS-induced NF-κB activation in both a dose-dependent (FIG. 1) and time-dependent manner
